Measured values reported in PubChem BioAssay AID686978 (National Center for Advancing Translational Sciences (NCATS), 2013).
Among all 420,000 compounds or so, about 64,000 (15%) were called active. The shares of active, inactive and inconclusive entries below differ from those in the screen. The call rests on the fitted dose curve; in most records, active means well fitted inhibition curve with a large enough effect; inconclusive means small, poorly fitted or top-dose-only effect; inactive means flat fitted curve, though single readings scatter. No potency is given beside an inconclusive call; the fits are too rough.

Assay: qHTS for Inhibitors of human tyrosyl-DNA phosphodiesterase 1 (TDP1): qHTS in cells in absence of CPT; further: nearly all actives have a fitted effect of over 55% in size
Conditions: DT40 Tdp1-/- hTDP1 cells, no CPT, ATP luminescence, 48 h; activity change, negative = growth inhibition: at 46.2 µM (top of the series) unless noted
Summary of the method: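 Growth of hTDP1-complemented DT40 Tdp1-knockout cells is measured by ATP luminescence after at least 48 hr compound exposure at 37 °C, with DMSO substituting for the 20 nM CPT used in the parallel screen.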
On the % scale 0 is the no-effect control and ±100 the full control effect; potency means the concentration at half of the fitted maximal effect; tags describe the fitted curve by direction and shape.

Row | Structure (SMILES) | Potency | activity change, negative = growth inhibition
1 | Cc1ccc(OCc2nc(C#N)c(NCc3ccc4c(c3)OCO4)o2)cc1 | inconclusive [inhibitor, single point] | –
2 | S=C(NCc1ccc(Cl)c(Cl)c1)Nc1ccc2c(c1)OCO2 | – | inactive: -24.6%
3 | COc1cc(C(=O)NCC2CCCO2)cc(Br)c1OCc1ccccc1 (stereo unspecified) | inconclusive [inhibitor, single point] | –
4 | COc1cccc(CN(CC2CCCO2)S(=O)(=O)c2ccc(S(=O)(=O)NCC3CCCO3)cc2)c1OC (stereo unspecified) | inconclusive [inhibitor, partial curve, poor fit] | –
5 | O=C(CCCc1c[nH]c2ccccc12)NCc1ccc2c(c1)OCO2 | inconclusive [inhibitor, single point] | –
6 | COc1ccc(-c2c(NC(=O)c3ccco3)oc3c(C)cccc3c2=O)cc1OC | inconclusive [inhibitor, single point] | –
7 | COC(=O)C[C@H]1c2cc(F)ccc2S(=O)(=O)N1C1CC1 | inconclusive [inhibitor, single point] | –
8 | COc1cccc(N2C(=O)CSC23C(=O)N(CC(=O)Nc2cccc(Cl)c2)c2ccccc23)c1 (stereo unspecified) | inconclusive [inhibitor, single point] | –
9 | COc1ccc(N(CC(=O)NC(C)c2ccccc2)S(=O)(=O)c2ccc(C)cc2)cc1 (stereo unspecified) | inconclusive [inhibitor, single point] | –
10 | CN(C)c1ccc(-c2csc(C(C)(O)c3ccc(F)c(F)c3)n2)cc1 (stereo unspecified) | inconclusive [inhibitor, single point] | –
11 | CCCCCCN1CCN(C2CN(Cc3cn(Cc4cc(C)cc(C)c4)nn3)S(=O)(=O)C2)CC1 (stereo unspecified) | active: 16.4 µM | –
12 | CC1(C)C=C2[C@H]3CC[C@@H]4[C@@]5(C)CCC(=O)C(C)(C)[C@@H]5CC[C@@]4(C)[C@]3(C)CC[C@@]2(C(=O)O)CC1 | active: 8.2 µM | –
13 | Cc1cnn(CCC(=O)NNC(=S)NCC(C)C)c1 | active: 25.9 µM | –
14 | Cc1cc2nc(-c3ccc(Cl)cc3)c(Cc3ccsc3)n2c(C)c1Br | inconclusive [inhibitor, single point] | –
15 | Cc1cccc2c(=O)c(C(=O)NCCc3ccccc3)c[nH]c12 | inconclusive [inhibitor, partial curve, poor fit] | –
16 | Cc1cc[n+]2n1CC(O)C2 (stereo unspecified) | – | inactive: -4.89%
17 | CCOc1ccc(NC(=O)CCc2c(C)nn(-c3ccc(N4CCCCC4)nn3)c2C)cc1 | inconclusive [inhibitor, single point] | –
18 | Nc1cc(N)nc(SCc2cc(=O)oc3cc4c(cc23)CCC4)n1 | inconclusive [inhibitor, single point] | –
19 | CCOc1ccc(OCCCCn2cnc3ccccc3c2=O)cc1 | inconclusive [inhibitor, single point] | –
20 | COc1cccc(NC(=O)COc2ccc(C(=S)N3CCN(C)CC3)cc2OC)c1 | inconclusive [inhibitor, single point] | –
21 | COc1cccc(-c2nn(C)c3sc(C(=O)N4CCN(c5ccccc5)CC4)cc23)c1 | active: 23.1 µM | –
22 | CN(C)c1ccc(/C=C/C(=O)c2cc(Cl)ccc2O)cc1 | inconclusive [inhibitor, single point] | –

Row | Structure (SMILES) | Potency | activity change, negative = growth inhibition
23 | COc1cc(CN(C(=O)COc2ccccc2Cl)c2ccccn2)cc(OC)c1OC | active: 18.4 µM | –
24 | Cc1nc2cnc(Oc3cccc(Cl)c3)nc2n(C2CC2)c1=O | inconclusive [inhibitor, single point] | –
25 | CCOC(=O)Cc1csc(NC(=O)CSc2nnc(-n3nc(C)cc3C)c3ccccc23)n1 | inconclusive [inhibitor, single point] | –
26 | CCCn1nc(Oc2nc(N(C)C)nc(N(C)C)n2)ccc1=O | – | inactive: -18.2%
27 | Cc1ccc(S(=O)(=O)N2CCCCC2)cc1C(=O)Nc1ccc(N2CCOCC2)cc1 | active: 12.6 µM | –
28 | COc1ccc2nc(N3CCCC3)c(C#N)cc2c1 | inconclusive [inhibitor, partial curve] | –
29 | O=C(CSc1nccn(-c2ccc(Br)cc2)c1=O)NC1CCCC1 | – | inconclusive: -31.4% [inhibitor]
30 | COc1ccc2c(c1)c(C(C)=O)c(C)n2-c1ccccc1OC | inconclusive [inhibitor, single point] | –
31 | O=C(CSC1=N/C(=C/c2ccc(Cl)c(Cl)c2)C(=O)N1c1ccccc1F)NC1CC1 | active: 16.4 µM | –
32 | CCC(=O)Nc1ccc2nc(SCc3ccccc3)sc2c1 | active: 13 µM | –
33 | Cc1ccc(S(=O)(=O)N2CCN(C(=O)C3CCN(C(=O)c4ccc(F)cc4)CC3)CC2)c(C)c1 | active: 10.3 µM | –
34 | Cc1ccc(S(=O)(=O)CCC(=O)OCC(=O)Nc2cccc(S(=O)(=O)N3CCCCC3)c2)cc1 | inconclusive [inhibitor, single point] | –
35 | CCN(CC)c1ccc(S(=O)(=O)N2CCCCC2)cc1NC(=O)CN1C(=O)NC2(CCCC2)C1=O | inconclusive [inhibitor, full curve, poor fit] | –
36 | CCO/C=N/Nc1nc(C(F)(F)F)nc2c1cnn2Cc1ccccc1 | – | inactive: -7.4%
37 | Cc1ccc2[nH]c(=O)c3cc(C(=O)NCCN4CCN(C)CC4)sc3c2c1 | – | inactive: -19.6%
38 | Cc1ccsc1/C=N/n1c(-c2ccccc2)n[nH]c1=S | inconclusive [inhibitor, single point] | –
39 | COc1ccc(CC(=O)Nc2cc(-c3nc4cccnc4s3)ccc2C)cc1 | inconclusive [inhibitor, single point] | –
40 | CC(=O)Nc1cccc(C(=O)OCC(=O)NC(=O)NC2CCCC2)c1 | inconclusive [inhibitor, single point] | –
41 | COc1cc2cc(CN(CCN3CCCC3)C(=O)Nc3ccc(F)cc3)c(=O)[nH]c2cc1OC | inconclusive [inhibitor, single point] | –
42 | CCC(CC)C(=O)N1CCc2cc(OC)c(OC)cc2C1COc1ccc(C(=O)OC)cc1 (stereo unspecified) | inconclusive [inhibitor, single point] | –
43 | S=C1NCCN1CC1CCN(CCC23CC4CC(CC(C4)C2)C3)CC1 | inconclusive [inhibitor, single point] | –
44 | CSc1ccccc1C(=O)C1CCCN(S(=O)(=O)N(C)C)C1 (stereo unspecified) | inconclusive [inhibitor, single point] | –

Row | Structure (SMILES) | Potency | activity change, negative = growth inhibition
45 | Oc1ccc(C[C@H]2CNC(=S)N2CC2CCCN2C[C@H](Cc2ccc(O)cc2)N2C[C@H](Cc3ccc(O)cc3)N(CC3CCCCC3)C2=S)cc1 (stereo partly specified) | active: 5.8 µM | –
46 | COc1ccc(C)cc1NC(=O)CSc1nc(=O)[nH]c2c1CCCC2 | inconclusive [inhibitor, single point] | –
47 | Cc1cccc(NC(=O)CSc2nc3ccccc3nc2N2CCCC2)c1 | inconclusive [inhibitor, single point] | –
48 | CCC1(CC)NC(=O)N(CC(=O)OCC(=O)NC(=O)c2ccccc2OC)C1=O | – | inactive: -17.1%
49 | Cc1cccc(N2CC(C(=O)NCCC3=CCCCC3)CC2=O)c1C (stereo unspecified) | inconclusive [inhibitor, single point] | –
50 | Cn1c(SCC(=O)c2ccc3c(c2)OCO3)nnc1C1COc2ccccc2O1 (stereo unspecified) | active: 16.4 µM | –
51 | CCSC1=NCCN1C(=O)C(C)(C)Oc1ccc(Cl)cc1 | inconclusive [inhibitor, partial curve] | –
52 | CCC/C(=N\NC(=O)c1ccccc1C)c1ccccc1 | inconclusive [inhibitor, single point] | –
53 | CC(=O)Nc1cccc(NC(=O)CCNC(=O)c2ccccc2)c1 | – | inactive: -11.2%
54 | CSc1ccc(-c2nnn(CC(=O)NCc3ccccc3)n2)cc1 | inconclusive [inhibitor, single point] | –
55 | CCOC(=O)C1=C(C)Nc2ccccc2N=C1NC(=O)C(c1ccccc1)c1ccccc1 | inconclusive [inhibitor, single point] | –
56 | C(=N\n1cnnc1)/c1ccccc1OCCOc1ccccc1 | inconclusive [inhibitor, single point] | –
57 | Cc1ccc2c(COC(=O)c3n[nH]c4ccccc34)cc(=O)oc2c1 | inconclusive [inhibitor, single point] | –
58 | CCOc1ccccc1NC(=O)C(=O)c1cc(C)n(-c2ccc(F)cc2)c1C | – | inactive: -25.5%
59 | CCOc1ccc(-n2cc(-c3ccccc3)c3c(N4CCC(C)CC4)ncnc32)cc1 | inconclusive [inhibitor, single point] | –
60 | CCOc1ccc(/C=N/NC(=O)COc2ccccc2-c2ccccc2)cc1 | inconclusive [inhibitor, single point] | –
61 | CCS(=O)(=O)c1nc(S(=O)(=O)c2ccc(C)cc2)c(NC(C)c2ccccc2)s1 (stereo unspecified) | inconclusive [inhibitor, single point] | –
62 | COc1ccc(-c2nnc(Nc3ccc(OC)c(C(N)=O)c3)c3ccccc23)cc1 | active: 16.4 µM | –
63 | Cc1ccc(-c2cc(C(F)F)n3ncc(C(=O)N4CCCCC4c4cccnc4)c3n2)cc1 (stereo unspecified) | inconclusive [inhibitor, single point] | –
64 | CN1CCN(C2CN(Cc3cn(Cc4cccc(C(F)(F)F)c4)nn3)S(=O)(=O)C2)CC1 (stereo unspecified) | – | inactive: -15.5%
65 | CC1(c2nnc(-c3cccc(Cl)c3)o2)CC(c2c(Cl)cccc2Cl)=NO1 (stereo unspecified) | inconclusive [inhibitor, single point] | –
66 | CN(CC(=O)NC(c1ccccc1)c1ccccc1)Cc1nc2ccccc2c(=O)[nH]1 | – | inconclusive: -33.3% [inhibitor]
